Experimental data as given in ChEMBL document CHEMBL4888484, “Replenishing the malaria drug discovery pipeline: Screening and hit evaluation of the MMV Hit Generation Library 1 (HGL1) against asexual blood stage Plasmodium falciparum ,using a nano luciferase reporter read-out” (2022).
About 540 (0.36%) of roughly 150,000 compounds showed an effect of 50% or more. The list shows a part of the results.

What follows are compounds tested on Plasmodium falciparum (assay: Primary screen in NF54 nanoGlo assay, in single point, at 2uM, 72h; a lower Z score goes with more inhibition). Details: timepoint 72 hour.
Assay type: functional, Erythrocyte
For COc1ccc(C)c2sc(N(CCN3CCOCC3)C(=O)c3ccn(C)n3)nc12, the “% Inhibition” value was -18% and the Z score was 3.16. In the case of Cc1ccccc1CN1CCNC(=O)[C@@H]1c1c(C)nn(-c2ccccc2)c1C, the “% Inhibition” value is reported as -2% and the Z score is reported as 0.43. For COC(=O)CN(C(=O)c1cnc(OC)c(Cl)c1)c1cccc(C)n1, the “% Inhibition” value was -6% and the Z score was 0.99. Cc1nccc(NC(=O)N(CCO)CC(F)F)n1 was tested, and the “% Inhibition” value was -10% and the Z score was 1.36. CCC(=O)Nc1ccc2c(c1)c(=O)n(-c1ccccc1)n2CC(=O)Nc1c(C)cccc1C was tested, and the “% Inhibition” value was 3% and the Z score was -0.37. In the case of Cn1nccc1C(=O)NC[C@H]1CCCN(C(=O)c2ccc3scnc3c2)C1, the “% Inhibition” value is reported as -7% and the Z score is reported as 1.06. Cc1cccc(CN2CCC[C@@]3(CCN(C(=O)c4oc(C)cc4C)C3)C2)c1 was tested, and the “% Inhibition” value was 7% and the Z score was -1.2. For COc1cccc(-c2nn([C@@H](C)C(=O)Nc3c(C)cc(C)cc3C)c(=O)c3noc(C)c23)c1, the “% Inhibition” value was -8% and the Z score was 0.76. In the case of C#CCCCn1ncc2c(OC)nc(N)nc21, the “% Inhibition” value is reported as 1% and the Z score is reported as -0.09. For Cn1cc(C(=O)N[C@H]2CCN(c3ccc(F)c(Cl)c3)C2)cn1, the “% Inhibition” value was -3% and the Z score was 0.57. With O=C(Cc1cccs1)NC[C@H]1CCCN(C(=O)c2nc3ncccn3n2)C1 the “% Inhibition” value was -8% and the Z score was 1.56. With CCOC(=O)c1cnc(N2CCN(Cc3ccno3)CC2)s1 the “% Inhibition” value was -13% and the Z score was 1.82. In the case of O=S(=O)(NCC1(CO)CCC1)C1CC1, the “% Inhibition” value is reported as 0% and the Z score is reported as 0.04. For O=S(=O)(NCc1ccc(-n2cncn2)nc1)N1CCCCC1, the “% Inhibition” value was -14% and the Z score was 2.21. Cn1cc(-c2ccccc2)c(NC(=O)NCCc2ccc(F)c(F)c2)n1 was tested, and the “% Inhibition” value was -2% and the Z score was 0.3. For CC(C)c1ncc(CN2CCC3(CCC(=O)N(CCN(C)C)C3)CC2)cn1, the “% Inhibition” value was 3% and the Z score was -0.43. In the case of Cn1nc(-c2ccccc2)c(CN(C[C@H]2CCCO2)C(=O)c2ccccc2Cl)c1Oc1ccc(Cl)cc1, the “% Inhibition” value is reported as 3% and the Z score is reported as -0.44. In the case of Cc1nnsc1CN(C)C(=O)CN1C(=O)OC[C@@H]1c1ccccc1, the “% Inhibition” value is reported as -10% and the Z score is reported as 1.14. For CCc1ncncc1C(=O)NS(=O)(=O)c1ccc(C2CCCCC2)cc1, the “% Inhibition” value was 22% and the Z score was -2.89. For Cc1noc(C)c1CC(=O)NC1(c2ccc(Cl)c(Cl)c2)CC1, the “% Inhibition” value was 2% and the Z score was -0.16. For Cc1cccc([C@H]2CCCN(C(=O)CCn3nnnc3C)C2)c1, the “% Inhibition” value was -3% and the Z score was 0.34. In the case of CN1CCCN(CC(=O)N2CC[C@@H]3OCc4cccc(c4)Oc4cccc(c4)CCC(=O)N(C)CC(=O)N[C@@H]3C2)CC1, the “% Inhibition” value is reported as -5% and the Z score is reported as 0.7. In the case of O=C(Nc1cccc(OCC(F)F)n1)N1CCCC1C1CCCO1 (configuration not stated), the “% Inhibition” value is reported as -9% and the Z score is reported as 0.88. With COc1cc2c(cc1OC)[C@H](C)N(C(=O)c1ccc3c(c1)C(=O)N(c1cc(Cl)ccc1Cl)C3=O)CC2 the “% Inhibition” value was -7% and the Z score was 0.86. CC(C)OC(=O)N1CCC2(CC1)C[C@@H](c1ccccc1)C(=O)N(C1CC1)C2 was tested, and the “% Inhibition” value was -7% and the Z score was 0.79. For Cc1cc(C(=O)N2CC(C)(C)[C@@H]2C2CC2)nc(C)n1, the “% Inhibition” value was 5% and the Z score was -0.7. In the case of COCCNCCOc1cc(C)ccc1C, the “% Inhibition” value is reported as -7% and the Z score is reported as 1.32. With CS(=O)(=O)NCCN1C[C@@H]2CCCCN2c2ccccc21 the “% Inhibition” value was 0% and the Z score was -0.08. In the case of CC1OCCC1NC(=O)N(Cc1ccccc1)CC(C)(C)O (configuration not stated), the “% Inhibition” value is reported as 4% and the Z score is reported as -0.39. In the case of CC(N)C1CCN(C(=O)c2cc3c(s2)CCC3)C1 (configuration not stated), the “% Inhibition” value is reported as -14% and the Z score is reported as 1.35. For Cc1ncc2c(c1-c1noc(-c3cn[nH]c3-n3cnnn3)n1)CCNC2, the “% Inhibition” value was 5% and the Z score was -0.82. For O=C(NCC1(c2ccccc2)CC1)c1cc(C(F)(F)F)c[nH]c1=O, the “% Inhibition” value was -7% and the Z score was 0.92. For CN(Cc1cccc(=O)[nH]1)C(=O)c1cc2c(cn1)OCCO2, the “% Inhibition” value was -14% and the Z score was 2.84. For COC(=O)c1cc2c(ncn2C)c(F)c1Nc1ccccc1, the “% Inhibition” value was -11% and the Z score was 1.44. For O=C(N[C@H]1CCOC[C@@H]1OCC1CCC1)c1nc2ccccc2[nH]c1=O, the “% Inhibition” value was -23% and the Z score was 3.81. For CC(C)(C)c1nnc(CN2C(=O)NC3(CCC3)C2=O)o1, the “% Inhibition” value was 14% and the Z score was -1.69. In the case of Cc1ccc(C)c(NC(=O)c2ccc3c(c2)nnn3Cc2ccccc2)c1, the “% Inhibition” value is reported as -10% and the Z score is reported as 1. In the case of COC1(Cn2cnc(-c3ccnn3C)c2[C@H]2CC23CC3)CCCC1, the “% Inhibition” value is reported as -7% and the Z score is reported as 1.32. With Cn1ccc2ccn(CCOCC(F)(F)C(F)(F)F)c(=O)c21 the “% Inhibition” value was -9% and the Z score was 0.86. With CN(c1nncs1)S(=O)(=O)c1ccccc1Cl the “% Inhibition” value was 4% and the Z score was -0.42. In the case of CC(C)c1nc(-c2snnc2C(C)C)n(-c2ccccn2)n1, the “% Inhibition” value is reported as -6% and the Z score is reported as 0.89.
